Numbering of substitutions follows the chain as printed. Like-named read-outs stand apart in the source and are kept apart here.
B1: DOMAIN_15419 (protein, listed as Rhinopithecus roxellana)
chain: LKGLVTFEDVAVEFTQEEWALLDPAQRTLYRDVMLENFRNLASLGNQVDKPGLISQLEQEDKVMTEERGIFPGACPDVENP
B2: DOMAIN_15234 (protein, listed as Acinonyx jubatus)
chain: AQAPLSFEDVAVSFSREEWRLLVPAQKDLYRDVMLENYRNLVSVGYQASEPDSLFQLEHGGPLWVVEGAAPRPPCPEEIWE
B3: DOMAIN_15086 (protein)
chain: AQVSVTFDDVAVTFTQEEWGHLEPAQRTLYQEVMLETCRLLMSLGCPVPRPELIYQLEHGQELWTVKRDLSRSTCPGYSSE
modifications: Ovis aries
B4: DOMAIN_15233 (protein, listed as Rhinopithecus roxellana)
chain: MVTFEDVAVHFTKTEWTGLSPAQRALYRSVMLENFGNLTALGYPVPKPALISLLEGGDMAWGLEAQDDPLAERTKNICKGV
B5: DOMAIN_15278 (protein, listed as Callithrix jacchus)
chain: RPRALKFVDVAVYFSSEEWGCLRPAQRALYRDVMRETYGHLGALGFPGPKPALISWMEQESEAWSSAAQDPENGESLGGAR
B6: DOMAIN_15352 (protein)
chain: B5 chain with R1K, R3G, L5V, K6S, V8A, S16P, A28S, N73K, R81Q
modifications: Cebus imitator
B7: DOMAIN_23723 (protein, listed as Carlito syrichta)
chain: SQGLLTFKDVAIEFSPEEWEYLDPPQRMLYRTVMLENHRNLVFLGLAVSKPDLIMCLEQRREPWNVKSHSKLAKSPAVTSH
B8: DOMAIN_15447 (protein, listed as Rhinopithecus roxellana)
chain: YQTPVSFKDVVVGFTQEEWHRLSPAQRALYRDVMLETYSNLVSVGYEGTKPDVILRLEQEEAPWIGGAARPGCHCWEDIWQ
B9: DOMAIN_15174 (protein)
chain: SQSLVTFGDVAINFSQEEWEWLNSAQRNLYRSVMLENYRNLVSLGLCVSKPDMISSLEQRKEPWMVKRKLTRGRCPDLKAV
modifications: Vulpes vulpes
B10: DOMAIN_22270 (protein, listed as Pan paniscus)
chain: GPLTFRDVAIEFSQEEWKSLDPVQKALYWDVMLENYRNLVFLGILPKCMTKELPPIGNSNTGEKCQTVMLERHECYDVENF
B11: DOMAIN_15254 (protein, listed as Callithrix jacchus)
chain: PQESVAFDDVAVYFTKKEWAIMVPDQRALYRDVMLENYEAVAFVVPPTSKPALISHLEQGKEPCFTQPQGVLSRRDWRAGF
B12: DOMAIN_15102 (protein, listed as Acinonyx jubatus)
chain: KPGALSFADVAVYFSSEEWGCLRPAQRALYRDVMRETYGHLGALGCAGPKPALISWLERNTDDWEPAALDPQECPRGVAVQ
B13: DOMAIN_15197 (protein, listed as Acinonyx jubatus)
chain: B12 chain with K1R, G3R, L5V, S6K, S16T, R35Q
B14: DOMAIN_15137 (protein)
chain: AKAPVTFGDLAIYFSQEEWEWLSPIQKDLYEDVMLENYQNLVSLGLSFRRPNVISLLEKGKAPWMVDPVKRRRGLDLGSKC
modifications: Ovis aries
B15: DOMAIN_15363 (protein, listed as Pongo sp.)
chain: B14 chain with A1S, Q39R, S55T, D67E, K70R, G74A, L75P, L77S
B16: DOMAIN_15159 (protein)
chain: MAFRDVAVDFTQDEWVLLSPAQRSLYREVMLENYSNLVSLGIPFSKPKLITQLEQGKESWREERKCSPVSCLGEWGHWVVQ
modifications: Ovis aries
B17: DOMAIN_15360 (protein, listed as Neophocaena asiaeorientalis)
chain: QAEVTFEDVAVLLSREEWGRLGPVQKGLYRDVMLETYRNLVSLGGGPAGPKPEVITQLERGDEPWVPDVQGRERLTIDGSA
B18: DOMAIN_15527 (protein, listed as Balaenoptera acutorostrata)
chain: B17 chain with G45A, A48T, P67L, R74G, L75P
B19: DOMAIN_23394 (protein)
chain: MAPSQGRLTFEDVAIEFSQEEWECLDPAQRALYGEVMLETYRNLVSLGLTSKDSCSLRKKPRRRRRGQKRTREWPLLRYH
modifications: Vicugna pacos
B20: DOMAIN_15070 (protein, listed as Callithrix jacchus)
chain: PLGSELFRDVAIVFSQEEWQWLAPAQRDLYRDVMLETYSNLVSLGLAISKPDVISFLEQGKEPWMVERVVAGGLCPVLESR
B21: DOMAIN_15241 (protein, listed as Odocoileus virginianus)
chain: B20 chain with P1S, E5D, Q20E, W21Q, A25T, I48V, M65T, R68E, V70A, E79K
B22: DOMAIN_15354 (protein, listed as Tursiops truncatus)
chain: PQKSVTFEDVAVYFTQTEWDGLSPAQRALYRDVMLENYGNVASLGFPLLKPTVISQLEGGGELEGPSPLASGTGTGPQGLW
B23: DOMAIN_15391 (protein, listed as Leptonychotes weddellii)
chain: B22 chain with P47S, T52A, G60A, E64G, A70V, S71D, G74E
B24: DOMAIN_15119 (protein, listed as Callithrix jacchus)
chain: PQESVAFDDVAVYFTKKEWAIMVPDQRALYRDVMLENYEAVAFVAVPPTSKPALISHLEQGKEPCFTQPQGVLSRRDWRAG
B25: DOMAIN_15267 (protein)
chain: SQVSVTFEDVAVLFTRDEWRKLAPPQRNLYQDVMLENYSNLVSLGLLFPKPKVISLLQQGEDPWKVEKENLGGSSLGWKNS
modifications: Ovis aries
B26: DOMAIN_15575 (protein, listed as Callithrix jacchus)
chain: IQGLLTFGDVAVAFTRIEWRHLDAAQRALYRDVMLENYGNLVSVGLLSSKPKLIAQLEQGAEPWMEVREAPSGTRAVPDYW
B27: DOMAIN_15083 (protein)
chain: AHMSLSFRDVAIDLSQEEWECLDPVQRALYRDVMLENYSNLVSLGCSTPKPDMITLLEQEKEPWMIMREGTGSWFTGLESK
modifications: Ovis aries

Test system: HBEGF locus
Format: cell-based, human
Settings: high-throughput screen of dXR repression of the HBEGF gene
[1] = abundance of each domain in the library before and after diphtheria toxin selection, HEK293T cells
[2] = change in abundance of each domain in the library before and after diphtheria toxin selection

Molecule	Log2 (fold change) [1]	Log2 (fold change) [2]
B1	2.6943	–
B2	3.546	–
B3	3.5994	–
B4	2.788	–
B5	3.2523	–
B6	3.0832	–
B7	–	3.5301
B8	3.1112	–
B9	3.1387	–
B10	–	2.3813
B11	3.5159	–
B12	3.0929	–
B13	3.0957	–
B14	2.7071	–
B15	4.3121	–
B16	3.2135	–
B17	3.2575	–
B18	3.0354	–
B19	–	4.0769
B20	4.0108	–
B21	3.3955	–
B22	3.5099	–
B23	3.9053	–
B24	3.3838	–
B25	2.8528	–
B26	2.594	–
B27	2.7541	–

— patent US12551573B2, “Compositions and methods for the targeting of PCSK9” (Scribe Therapeutics Inc., priority 2022, dated 2026)
